# Measurements published in PubChem BioAssay (Tox21).
# Several values for one entry are separate records, joined by “and”; a condition that tells them apart may be missing. Identical values can stand only once. Inconclusive means that the source gave no clear call. Such entries were picked first, then a sample of the others. For some of these results: Potencies beside an inconclusive call are fits to weak or partial responses and may not hold up. Some structures have more than one record in an assay (separate samples or runs), and their calls can disagree. Activity calls are given as the source filed them. Unless noted, calls follow the shape of the dose curve; as a rule, active = well fitted curve in the direction sought with a large enough effect in the repeat runs; inconclusive = weak or mixed curves; inactive = no such curve, though single readings can be large; an effect the other way counts as inactive or inconclusive.
# Legend:
# [1] = qHTS assay to identify small molecule antagonists of the androgen receptor (AR) signaling pathway - cell viability counter screen (AID 743033; also: potency is read from the fitted curve at half-maximal effect; nearly all actives have a fitted effect of over 45% in size); conditions: AR-bla HEK293 viability, CellTiter-Glo luminescence, 16 h; activity change, negative = cytotoxicity: at 58.5 µM (top of the series) unless noted
# [2] = qHTS assay to identify small molecule antagonists of the androgen receptor (AR) signaling pathway using the MDA cell line - cell viability counter screen (AID 743041; also: potency is read from the fitted curve at half-maximal effect; nearly all actives have a fitted effect of over 45% in size); conditions: MDA-kb2 viability, CellTiter-Fluor, 16 h, cells co-treated with R1881 androgen agonist; viability change, negative = cytotoxic: at 70.3 µM (top of the series) unless noted
# Procedure, shortened: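 Cytotoxicity counter screen: MDA-kb2 AR-luc cells, compound + R1881, 16 h, 37C, 0% CO2; CellTiter-Fluor added at 15.5 h, fluorescence read after 30 min.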
# [3] = system: thyroid hormone receptor (rat, GH3 cells); assay: qHTS assay to identify small molecule agonists of the thyroid receptor (TR) signaling pathway (AID 743066; calls by dose curve; also: % is scaled to controls: 0 for no effect and ±100 for the full control effect); conditions: GH3.TRE-Luc cells, TR agonist luciferase, 24 h; activation: at 83.9 µM (top of the series) unless noted
# [4] = qHTS assay to identify small molecule antagonists of the estrogen receptor alpha (ER-alpha) signaling pathway - cell viability counter screen (AID 743074; calls by dose curve;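 also: HEK293 cells carrying ER-alpha-UAS-bla reporter stimulated with 17beta-estradiol; potency is read from the fitted curve at half-maximal effect; nearly all actives have a fitted effect of over 45% in size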)
# [5] = biological target: Estrogen receptor (Homo sapiens) (UniProt P03372); assay: qHTS assay to identify small molecule agonists of the estrogen receptor alpha (ER-alpha) signaling pathway using the BG1 cell line (AID 743079); conditions: BG1Luc4E2 cells, ERE-luciferase agonist, 22 h; activation: at 70.3 µM (top of the series) unless noted; also: potency is read from the fitted curve at half-maximal effect; nearly all actives have a fitted effect of over 20% in size
# UniProt P03372, sequence (P03372 whole entry, looked up): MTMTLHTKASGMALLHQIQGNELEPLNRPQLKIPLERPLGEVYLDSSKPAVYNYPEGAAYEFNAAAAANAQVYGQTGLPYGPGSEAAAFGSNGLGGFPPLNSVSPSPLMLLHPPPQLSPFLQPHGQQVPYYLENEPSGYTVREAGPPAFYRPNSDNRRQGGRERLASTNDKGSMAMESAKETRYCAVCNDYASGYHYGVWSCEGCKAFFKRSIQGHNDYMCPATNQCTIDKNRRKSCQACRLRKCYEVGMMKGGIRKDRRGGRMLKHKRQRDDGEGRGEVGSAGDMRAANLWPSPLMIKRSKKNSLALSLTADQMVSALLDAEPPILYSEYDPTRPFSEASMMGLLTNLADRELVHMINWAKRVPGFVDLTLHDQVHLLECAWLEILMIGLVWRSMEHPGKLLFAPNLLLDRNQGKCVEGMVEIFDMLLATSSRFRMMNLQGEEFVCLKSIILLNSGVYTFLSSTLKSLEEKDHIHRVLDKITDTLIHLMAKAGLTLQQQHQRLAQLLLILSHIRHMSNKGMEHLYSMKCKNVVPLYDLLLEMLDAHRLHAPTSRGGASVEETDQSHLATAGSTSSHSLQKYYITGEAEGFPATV
# [6] = qHTS assay to identify small molecule antagonists of the estrogen receptor alpha (ER-alpha) signaling pathway using the BG1 cell line - cell viability counter screen (AID 743081); conditions: BG1Luc4E2 viability, CellTiter-Fluor, 22 h; activity change, negative = cytotoxicity: at 70.3 µM (top of the series);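 also: compound given together with 17beta-estradiol as the ER stimulus; potency is read from the fitted curve at half-maximal effect; nearly all actives have a fitted effect of over 45% in size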
# [7] = biological target: Aromatase (Homo sapiens) (UniProt P11511); assay: qHTS assay to identify aromatase inhibitors (AID 743083); conditions: MCF-7 aro ERE, testosterone-driven ERE luciferase, 24 h; activity, negative = inhibition: at 70.3 µM (top of the series); also: potency is read from the fitted curve at half-maximal effect; nearly all actives have a fitted effect of over 55% in size
# UniProt P11511, sequence (P11511 whole entry, looked up): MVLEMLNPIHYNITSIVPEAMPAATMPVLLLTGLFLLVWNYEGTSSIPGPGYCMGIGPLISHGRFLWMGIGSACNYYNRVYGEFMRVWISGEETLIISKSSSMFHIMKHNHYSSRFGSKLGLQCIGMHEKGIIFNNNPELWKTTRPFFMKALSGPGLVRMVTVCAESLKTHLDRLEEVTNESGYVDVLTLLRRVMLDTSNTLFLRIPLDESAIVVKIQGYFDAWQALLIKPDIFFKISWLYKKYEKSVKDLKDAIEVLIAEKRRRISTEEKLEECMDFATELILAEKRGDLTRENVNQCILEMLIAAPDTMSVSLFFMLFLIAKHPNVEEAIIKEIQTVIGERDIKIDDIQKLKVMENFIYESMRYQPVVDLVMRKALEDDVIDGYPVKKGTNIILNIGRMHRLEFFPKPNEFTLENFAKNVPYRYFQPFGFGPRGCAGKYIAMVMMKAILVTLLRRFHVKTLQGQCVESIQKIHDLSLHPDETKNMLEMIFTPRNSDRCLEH
# [8] = qHTS assay to identify aromatase inhibitors - cell viability counter screen (AID 743084); conditions: MCF-7 aro ERE viability, CellTiter-Fluor, 24 h; activity change, negative = cytotoxicity: at 70.3 µM (top of the series) unless noted;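 also: cells stimulated with testosterone during compound exposure; nearly all actives have a fitted effect of over 55% in size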; also: potency is read from the fitted curve at half-maximal effect; as to activity change, negative = cytotoxicity: % is scaled to controls: 0 for no effect and ±100 for the full control effect
# [9] = biological target: Aryl hydrocarbon receptor (Homo sapiens) (UniProt P35869); assay: qHTS assay to identify small molecule that activate the aryl hydrocarbon receptor (AhR) signaling pathway (AID 743085); also: potency is read from the fitted curve at half-maximal effect; nearly all actives have a fitted effect of over 15% in size
# UniProt P35869, sequence (P35869 whole entry, looked up): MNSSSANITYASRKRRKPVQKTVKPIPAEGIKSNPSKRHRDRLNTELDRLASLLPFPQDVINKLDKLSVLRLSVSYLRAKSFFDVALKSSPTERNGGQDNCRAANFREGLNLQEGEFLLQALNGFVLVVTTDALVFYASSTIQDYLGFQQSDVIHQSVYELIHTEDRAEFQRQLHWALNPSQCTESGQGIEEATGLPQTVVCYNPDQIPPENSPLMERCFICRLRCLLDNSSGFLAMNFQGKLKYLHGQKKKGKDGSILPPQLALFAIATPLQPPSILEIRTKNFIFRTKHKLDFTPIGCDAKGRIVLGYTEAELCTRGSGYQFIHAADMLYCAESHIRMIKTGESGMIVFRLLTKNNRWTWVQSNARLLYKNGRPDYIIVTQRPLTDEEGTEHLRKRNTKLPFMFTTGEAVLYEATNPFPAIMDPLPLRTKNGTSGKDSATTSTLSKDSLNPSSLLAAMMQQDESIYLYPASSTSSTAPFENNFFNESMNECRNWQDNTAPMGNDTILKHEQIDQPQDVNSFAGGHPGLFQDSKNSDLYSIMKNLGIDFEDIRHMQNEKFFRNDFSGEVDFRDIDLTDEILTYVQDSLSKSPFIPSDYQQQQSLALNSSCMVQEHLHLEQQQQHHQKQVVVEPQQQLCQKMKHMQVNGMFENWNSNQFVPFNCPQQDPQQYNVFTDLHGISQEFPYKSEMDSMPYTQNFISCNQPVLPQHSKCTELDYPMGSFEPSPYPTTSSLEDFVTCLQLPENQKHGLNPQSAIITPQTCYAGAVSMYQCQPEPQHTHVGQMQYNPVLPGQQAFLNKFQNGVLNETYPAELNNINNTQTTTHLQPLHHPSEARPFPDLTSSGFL
# Procedure, shortened: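 Cell line HG2L7.5c1 (human hepatoma, 20× DRE-luc). Plated, 5 h 37C, compound/DMSO added, 24 h 37C. CellTiter-Fluor 30 min 37C → fluorescence; then ONE-Glo 30 min RT → luminescence.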
# [10] = qHTS assay to identify small molecule that activate the aryl hydrocarbon receptor (AhR) signaling pathway - cell viability counter screen (AID 743086)
# Procedure, shortened: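 HepG2-AhR-luc (HG2L7.5c1) cells, 4000/well, treated 24 h at 37 C with compound; viability measured as CellTiter-Fluor fluorescence after 30 min in the same wells as the luciferase read.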
# [11] = biological target: Peroxisome proliferator-activated receptor gamma (Homo sapiens) (UniProt P37231); assay: qHTS assay to identify small molecule agonists of the peroxisome proliferator-activated receptor gamma (PPARg) signaling pathway (AID 743094; active = well fitted activation curve with a large enough effect in the signal ratio in the repeat runs, not every such curve was filed as active; inconclusive = weak or mixed curves, or effect the other way; inactive = no such curve, though single readings can be large or run the other way; the % refers to the signal ratio; also: potency is read from the fitted curve at half-maximal effect; as to activation: % is scaled to controls: 0 for no effect and ±100 for the full control effect); conditions: HEK293H PPARg-UAS-bla, beta-lactamase FRET ratio, 17 h
# UniProt P37231, sequence (P37231 whole entry, looked up): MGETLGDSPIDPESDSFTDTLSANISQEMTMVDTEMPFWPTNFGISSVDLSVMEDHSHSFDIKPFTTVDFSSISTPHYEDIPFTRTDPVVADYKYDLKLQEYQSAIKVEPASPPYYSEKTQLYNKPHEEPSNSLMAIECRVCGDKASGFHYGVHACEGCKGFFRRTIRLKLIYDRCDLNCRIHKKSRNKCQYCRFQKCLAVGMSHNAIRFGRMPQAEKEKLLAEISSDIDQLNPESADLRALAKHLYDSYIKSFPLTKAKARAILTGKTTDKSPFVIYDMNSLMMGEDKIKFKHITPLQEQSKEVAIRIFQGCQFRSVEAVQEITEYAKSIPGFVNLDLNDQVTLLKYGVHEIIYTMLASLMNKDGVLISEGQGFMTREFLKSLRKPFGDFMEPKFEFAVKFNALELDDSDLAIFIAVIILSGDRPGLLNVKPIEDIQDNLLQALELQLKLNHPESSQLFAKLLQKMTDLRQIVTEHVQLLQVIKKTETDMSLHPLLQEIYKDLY
# Procedure, shortened: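 HEK293H PPARg-bla cells, 5 h settle at 37C/5% CO2; compound (DMSO) 17 h, 37C; B/G FRET substrate 1 h RT; fluorescence intensity read-out. qHTS format.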
# [12] = qHTS assay to identify small molecule antagonists of the thyroid receptor (TR) signaling pathway - cell viability counter screen (AID 743064); conditions: GH3.TRE-Luc viability, CellTiter-Fluor, 24 h; activity change, negative = cytotoxic: at 70.3 µM (top of the series) unless noted; also: potency is read from the fitted curve at half-maximal effect; nearly all actives have a fitted effect of over 50% in size
# Procedure, shortened: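 Fluorescence from CellTiter-Fluor, added after 23.5 h exposure at 37 °C, reported viability of GH3.TRE-Luc cells co-treated with compound and 1 nM T3. Measured in the same wells as the luciferase TR readout.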
# [13] = qHTS assay to identify small molecule antagonists of the thyroid receptor (TR) signaling pathway (AID 743065); also: potency is read from the fitted curve at half-maximal effect; nearly all actives have a fitted effect of over 55% in size
# Procedure, shortened: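 GH3.TRE-Luc rat pituitary cells (two TREs driving luciferase) were dosed with compound, then stimulated with 1 nM T3 (final) for 23.5 h at 37 C. ONE-Glo luminescence was the read-out, with CellTiter-Fluor fluorescence as the cytotoxicity counter-screen.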
# [14] = qHTS assay to identify small molecule antagonists of the estrogen receptor alpha (ER-alpha) signaling pathway using the BG1 cell line (AID 743080; calls by dose curve;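 also: BG1 cells stimulated with 17beta-estradiol alongside compound; potency is read from the fitted curve at half-maximal effect; nearly all actives have a fitted effect of over 25% in size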); conditions: BG1Luc4E2 ERE-luciferase antagonist mode, luminescence; activity change, negative = inhibition: at 70.3 µM (top of the series) unless noted
# Procedure, shortened: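 BG1Luc4E2, endogenous ER-alpha, 4xERE-luc; 5 d charcoal-stripped FBS, phenol red free; 24 h plating; cpd + 17beta-estradiol 21.5 h, 37 C/5% CO2; CellTiter-Fluor viability 30 min, then ONE-Glo luciferase 30 min RT.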
# [15] = biological target: Estrogen receptor (Homo sapiens) (UniProt P03372); assay: qHTS assay to identify small molecule antagonists of the estrogen receptor alpha (ER-alpha) signaling pathway (AID 743069; active = well fitted curve in the direction sought with a large enough effect in the signal ratio in the repeat runs, not every such curve was filed as active; inconclusive = weak or mixed curves, or effect the other way; inactive = no such curve, though single readings can be large or run the other way; the % refers to the signal ratio; also: potency is read from the fitted curve at half-maximal effect); conditions: HEK293 ER-alpha-UAS-bla, beta-lactamase ratio, antagonist mode; activity, negative = inhibition: at 69.4 µM (top of the series) unless noted
# Procedure, shortened: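 Beta-lactamase FRET fluorescence is read after 2 hr at room temperature with LiveBLAzer B/G substrate. Before that, ER-alpha-bla HEK293 cells sit 4 hr after plating, then receive compound plus 17beta-estradiol and incubate 18 hr at 37C.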
# [16] = biological target: Estrogen receptor (Homo sapiens) (UniProt P03372); assay: qHTS assay to identify small molecule agonists of the estrogen receptor alpha (ER-alpha) signaling pathway (AID 743075; calls by dose curve;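 also: HEK293 GripTite cells with ER-alpha and UAS-driven beta-lactamase reporter; potency is read from the fitted curve at half-maximal effect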)
# [17] = activation: at 57 µM (top of the series) unless noted
# Tags tell the direction and shape of the fitted curve or compound fluorescence and quenching.
smiles,measurement,setting,value
CC(C)Nc1ccc(Nc2ccccc2)cc1,Potency,[1],inconclusive: 23.9 µM [cytotoxic] and active: 21.8 µM and active: 49 µM
same,Potency,[2],"inconclusive: 31.2 µM [cytotoxic, single point] and active: 68.3 µM and active: 61.1 µM"
same,activation,[3],inconclusive: -8.35% [phenotype inactive]
same,Potency,[4],"inconclusive: 26.8 µM [cytotoxic, single point] and active: 48.8 µM and active: 43.6 µM"
same,Potency,[5],"inconclusive: 33.5 µM [inhibitor, single point] and inconclusive: 76.6 µM [inhibitor, single point] and inconclusive: 68.6 µM [inhibitor, single point]"
same,Potency,[6],"inconclusive: 68.3 µM [cytotoxic] and inconclusive: 68.6 µM [cytotoxic, single point]"
same,Potency,[7],active: 13.3 µM and active: 27.2 µM and inconclusive: 61.1 µM [inhibitor]
same,Potency,[8],"inconclusive: 33.5 µM [cytotoxic, single point]"
same,Potency,[9],"inconclusive: 29.8 µM [activator, partial curve]"
same,Potency,[10],"inconclusive: 33.5 µM [falling, single point] and inconclusive: 68.3 µM [falling, single point] and inconclusive: 68.6 µM [falling, single point]"
same,activation,[11]; [17],inconclusive: -16.9% and inconclusive: 6.24% and inconclusive: -2.32%
CCCN(CCOc1c(Cl)cc(Cl)cc1Cl)C(=O)n1ccnc1,Potency,[1],"active: 25.1 µM and inconclusive: 275 nM [cytotoxic, full curve, poor fit]"
same,Potency,[12],"inconclusive: 77 µM [cytotoxic, single point]"
same,Potency,[13],active: 27.9 µM and active: 61.1 µM
same,Potency,[6],"inconclusive: 70.1 µM [cytotoxic, partial curve, poor fit]"
same,Potency,[8],inconclusive: 70.1 µM [cytotoxic]
same,Potency,[10],"inconclusive: 54.5 µM [falling, partial curve]"
same,activation,[11]; [17],inconclusive: -20.3% [at 78.9 µM]
CN(C)C(=S)[S-].CN(C)C(=S)[S-].[Cu+2],Potency,[1],active: 2.99 µM
same,Potency,[2],"inconclusive: 16.7 µM [cytotoxic, single point]"
same,Potency,[4],active: 6.7 µM
same,Potency,[6],active: 1.49 µM
same,Potency,[8],active: 1.87 µM
Nc1ccc(N=Nc2ccccc2)cc1,Potency,[1],"inconclusive: 0.0347 µM [cytotoxic, full curve, poor fit]"
same,Potency,[12],active: 56.1 µM
same,Potency,[3],inactive
same,Potency,[4],"inconclusive: 1.38 µM [rising, full curve, poor fit]"
same,Potency,[5],active: 14.1 µM
same,Potency,[14],"inconclusive: 1.72 µM [activator, full curve]"
same,Potency,[6],active: 43.3 µM
same,Potency,[9],active: 26.5 µM
same,Potency,[10],inconclusive: 45.8 µM
same,Potency,[11]; [17],inconclusive: 19.5 µM
C[Si](Cn1cncn1)(c1ccc(F)cc1)c1ccc(F)cc1,Potency,[1],"active: 14.3 µM and inconclusive: 24.5 µM [cytotoxic, full curve]"
same,Potency,[12],"inconclusive: 43.3 µM [cytotoxic, partial curve]"
same,activation,[3],inconclusive: -9.49% [phenotype inactive]
same,Potency,[4],"inconclusive: 56.8 µM [cytotoxic, single point]"
same,Potency,[6],"inconclusive: 70.8 µM [cytotoxic, partial curve]"
same,Potency,[8],active: 63.1 µM and inactive
same,activation,[11]; [17],inconclusive: -15.9% [at 78.9 µM]
same,activation,[11]; at 57 µM (top of the series),inactive: -4.72%
CC[C@H](C)[C@H]1O[C@]2(C=C[C@@H]1C)C[C@@H]1C[C@@H](C/C=C(\C)[C@@H](O[C@H]3C[C@H](OC)[C@@H](O[C@H]4C[C@H](OC)[C@@H](NC)[C@H](C)O4)[C@H](C)O3)[C@@H](C)/C=C/C=C3\CO[C@@H]4[C@H](O)C(C)=C[C@@H](C(=O)O1)[C@]34O)O2,Potency,[1],active: 2.19 µM
same,Potency,[2],active: 21.7 µM
same,Potency,[15],active: 30.9 µM [cytotoxic]
same,Potency,[4],active: 13.8 µM
same,Potency,[16],inconclusive: 24.5 µM [cytotoxic]
same,Potency,[5],"inconclusive: 9.69 µM [inhibitor, partial curve]"
same,Potency,[14],"inconclusive: 15.4 µM [falling, full curve]"
same,Potency,[6],active: 30.6 µM
same,Potency,[7],active: 4.86 µM
same,Potency,[8],active: 9.69 µM
same,Potency,[10],active: 4.33 µM
same,Potency,[11]; [17],"inconclusive: 6.16 µM [cytotoxic, full curve]"
CCOP(=S)(OCC)SCn1c(=O)oc2cc(Cl)ccc21,Potency,[1],"inconclusive: 46.8 µM [cytotoxic, partial curve, poor fit]"
same,Potency,[12],"inconclusive: 68.6 µM [cytotoxic, single point]"
same,Potency,[13],"inconclusive: 73.6 µM [inhibitor, single point] and active: 68.6 µM"
same,Potency,[7],active: 65.6 µM
same,Potency,[9],active: 32.9 µM and active: 61.1 µM
